Measurements: PubChem BioAssay AID652104 (National Center for Advancing Translational Sciences (NCATS), 2013)
The whole screen tested about 410,000 compounds, of which about 7,200 (1.8%) were called active. Inconclusive results, whose numbers are uncertain, are shown with a selection of clear calls. Calls come from the whole dose curve; as a rule, active = well fitted activation curve with a large enough effect; inconclusive = small, poorly fitted or top-dose-only effect, or another doubt; inactive = no such curve, though single readings can be large or run the other way. Potencies of inconclusive entries are left out as doubtful fits.

Assay: qHTS of TDP-43 Inhibitors; note: nearly all actives have a fitted effect of over 50% in size; for growth rescue (activation): % of control where 0% means no effect
Settings: TDP-43 expressing yeast growth rescue, BacTiter-Glo, 24 h; growth rescue (activation): at 46.1 µM (top of the series) unless noted
Procedure, shortened: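 In this qHTS, compounds that restore growth of yeast expressing TDP-43 appear as activators. Cells (OD600=0.02, galactose medium, raffinose-pregrown) are incubated with compound 24 hr at 30 deg C and growth is quantified by BacTiter-Glo.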
Potency is the fitted concentration of half-maximal effect; tags give direction and shape of the fitted curve.

SMILES	Potency	growth rescue (activation)
COc1cccc(N2CCN(C(=O)c3cc(C)oc3C)CC2)c1	inconclusive [activator, single point]	–
O=c1cc(CCc2ccccc2)oc2cccc(O)c12	inconclusive [activator, partial curve]	–
Cc1cnc(C(=O)OC(C)C(=O)Nc2ccc(Oc3ccccc3)cc2)cn1 (stereo not drawn)	inconclusive [activator, partial curve]	–
COc1cc(NC(=O)CN2C(=O)NC(CC(C)C)C2=O)cc(OC)c1OC (stereo not drawn)	inconclusive [activator, partial curve]	–
CCSc1ccccc1C(=O)NCc1ccco1	inconclusive [activator, single point]	–
Cc1ccc(C(=O)N2CCc3ccccc32)cc1C	inconclusive [activator, single point]	–
O=C(COC(=O)c1ccc(Cl)cc1O)NC(=O)C1CCCCC1	inconclusive [activator, single point]	–
S=c1[nH]cnc2sc(-c3ccccc3)cc12	inconclusive [activator, partial curve]	–
Cn1c(-c2ccccc2)c(CCO)c2ccccc21	inconclusive [activator, single point]	–
C=CCn1cccc(C(=O)Nc2ccc(C)c(Cl)c2)c1=O	inconclusive [activator, partial curve]	–
Cc1cccc(C(=O)N2CCC(=O)N(C(COCc3ccc(Cl)cc3)Cc3ccccc3)CC2)c1 (stereo not drawn)	active: 35.5 µM	–
COc1ccc(C(=O)N(c2ccc(OC)cc2)S(=O)(=O)c2cccs2)cc1	inactive	–
CCN(CC)S(=O)(=O)c1ccc2c(c1)N(CC(=O)N1CCN(c3ccccc3F)CC1)C(=O)CO2	inactive	–
CC1CN(c2nc3c(c(=O)n(Cc4ccc(Cl)c(Cl)c4)c(=O)n3C)n2C)CC(C)O1 (stereo not drawn)	active: 25.1 µM	–
O=C1C=CCC(/C=C/c2ccccc2)O1 (stereo not drawn)	inconclusive [activator, partial curve]	–
O=C(N/N=C/C1CC2C=CC1C2)c1ccccc1O (stereo not drawn)	inactive	–
Cc1cccc(NC(=O)c2ccc(COc3ccccc3[N+](=O)[O-])o2)n1	inconclusive [activator, single point]	–
N#Cc1ccc(CSc2ccccn2)c(Cl)c1	inconclusive [activator, single point]	–
CCCCC(=O)NC(c1ccc(Cl)cc1)c1ccc2cccnc2c1O (stereo not drawn)	–	inconclusive: 46.8% [activator]
CN(C)c1ccnc2sc(C(=O)c3ccccc3)c(N)c12	active: 6.31 µM	–
OCCCN=C1CCCc2c1[nH]c1ccc(Cl)cc21	inconclusive [activator, single point]	–
CCc1c(C)nc2nncn2c1Nc1ccc(C(C)C)cc1	active: 12.6 µM	–
S=C(NC1CCCCC1)N1CCn2cccc2C1c1cccnc1 (stereo not drawn)	inconclusive [activator, single point]	–
O=c1c2ccccc2nnn1Cc1ccc2ccccc2c1	inconclusive [activator, partial curve]	–
O=C(c1ccco1)N1CCN(c2nc(-c3ccc(F)cc3)cs2)CC1	inconclusive [activator, partial curve]	–

SMILES	Potency	growth rescue (activation)
COc1ccc(-c2nc3ccc(Br)cn3c2Cc2cccc(Cl)c2)cc1OC	active: 22.4 µM	–
COc1ccc(N2CCN(C(=O)CCn3c(=O)c4cccn4c4cccnc43)CC2)cc1	inactive	–
Fc1ccc(CNc2ccc(CNc3ncn[nH]3)cc2)cc1	inconclusive [activator, single point]	–
Oc1c(C=NCc2ccncc2)sc2ccccc12	inactive	–
CCCCc1ccccc1NC(=S)NC1CCCC1	inactive	–
CCOC(=O)c1[nH]c2cc3c(cc2c1NC(=O)CN1CC(C)CC(C)C1)OCO3 (stereo not drawn)	inconclusive [activator, full curve]	–
COc1ccc(Cc2nc3c4cnn(-c5ccccc5F)c4ncn3n2)cc1	inconclusive [activator, full curve]	–
CN(C)c1cc(NC(=O)CNC(C)(C)C)c2ccccc2n1	inactive	–
Cc1ccc(C)c(NS(=O)(=O)c2ccc3oc(=O)ccc3c2)c1	inactive	–
Cc1ccc(Cl)cc1-c1cc(C(=O)N2CCc3ccccc3C2)[nH]n1	inconclusive [activator, single point]	–
COC(=O)c1cc(CSc2nnc(NC3CCCCC3)s2)oc1C	inconclusive [activator, single point]	–
Cc1ccc(NS(=O)(=O)c2cc(-c3cnc(C4CC4)o3)ccc2C)cc1Cl	inactive	–
c1ccc(-c2nn3c(C4CCCCC4)nnc3s2)cc1	active: 20 µM	–
CC(OC(=O)Cc1ccc(Cl)cc1)C(=O)NC1CCCCC1C (stereo not drawn)	inconclusive [activator, single point]	–
CC(C)Oc1ccc(C(=O)NCC(c2ccc(N(C)C)cc2)N2CCCC2)cc1 (stereo not drawn)	inactive	–
COc1ccc(C2NC(=O)N(C)C3=C2C(=O)N(c2cccc(C(=O)O)c2)C3)cc1 (stereo not drawn)	inactive	–
Cc1cccc(N(CC(=O)NCCSCc2cccc(Cl)c2)S(=O)(=O)c2ccccc2)c1C	inactive	–
O=C(COC(=O)/C=C/c1ccc(OC(F)F)cc1)NC1CCCCC1	inconclusive [activator, full curve, poor fit]	–
Cc1cs/c(=N\N=C\c2ccccc2)n1Cc1ccco1	inconclusive [activator, partial curve]	–
CC(C)Nc1nc(Cl)nc(NCCOc2ccccc2)n1	inconclusive [activator, partial curve]	–
COc1cc(Cc2ccc(N)c(OC)c2)ccc1N	inactive	–
COc1ccc(-c2nn3c(=O)cc(CN4CCN(S(=O)(=O)c5ccc(C)cc5)CC4)nc3s2)cc1	inactive	–
COc1ccccc1C(=O)NCCNc1nc2cc(C)cc(C)c2cc1C#N	inconclusive [activator, partial curve]	–
Cc1ccc2nc(NCc3ccccc3)c(C=NCc3cccnc3)c(=O)n2c1	inactive	–
CC(NC(=O)COC(=O)C1CCN(c2ccc(C(F)(F)F)cn2)CC1)c1ccccc1 (stereo not drawn)	inactive	–

SMILES	Potency	growth rescue (activation)
Cc1oc2ncn(C)c(=O)c2c1C(=O)NCc1ccc(Cl)cc1	inconclusive [activator, partial curve]	–
COc1ccc(-c2nc(Cn3c(SCc4cccc(C(F)(F)F)c4)nc4cccnc43)c(C)o2)cc1OC	inconclusive [activator, single point]	–
O=C(Nc1ccc(Cl)c([N+](=O)[O-])c1)c1ccncc1	inactive	–
CCn1cc(C(=O)N[C@H](C(=O)NCCCOC)C(C)C)c(=O)c2cc3c(cc21)OCO3	inconclusive [activator, single point]	–
CC(=O)c1ccc(NC(=O)c2nc(-c3ccccc3)n(-c3ccccc3)n2)cc1	active: 17.8 µM	–
O=C(O)c1ccc(-c2ccccc2)[nH]1	inconclusive [activator, single point]	–
O=C(O)c1cccc(NC2=C(Cl)C(=O)c3ccccc3C2=O)c1	–	inconclusive: -91.5% [activator]
CCc1ccccc1NC(=O)N1CC(C)Sc2ccccc21 (stereo not drawn)	inactive	–
Cc1nn(-c2ccccc2)c(C)c1/C=N/NC(=O)c1cc(-c2ccc(Cl)s2)[nH]n1	inconclusive [activator, single point]	–
CCCC(=O)c1ccc(N2CCC(C)CC2)c(F)c1	inconclusive [activator, single point]	–
CCOc1ccccc1N(C)C(=O)Cn1ncc2c([nH]c3ccc(C)cc32)c1=O	inactive	–
Oc1ccc(/C=N/Nc2cccc(Cl)n2)c(O)c1	inconclusive [activator, partial curve, poor fit]	–
Cc1cc(S(=O)(=O)Nc2ccc(C(=O)O)cc2)c(C)c(S(=O)(=O)c2ccc(Cl)cc2)c1	inconclusive [activator, partial curve]	–
COc1cc(/C=C2/N=C(C3CCCCC3)OC2=O)cc(OC)c1OC	inconclusive [activator, partial curve]	–
Cn1nc(C(C)(C)C)cc1NC(=O)C1(C)CCN1C(=O)Cc1ccc(-c2ccccc2)cc1 (stereo not drawn)	inconclusive [activator, partial curve]	–
CC(CCc1ccccc1)NC(=O)CN1CCN(Cc2ccc(Cl)cc2)C1=O (stereo not drawn)	inconclusive [activator, partial curve]	–
COc1ccc(C(=O)NC(=S)NC(C)(C)C)cc1Br	inconclusive [activator, single point]	–
CCCC(=O)NC(=S)Nc1ccc(N2CCOCC2)c(Cl)c1	inconclusive [activator, partial curve]	–
CCOC(=O)c1c(C)[nH]c(N=Nc2ccccc2Cl)c1C	inconclusive [activator, partial curve]	–
O=C(O)/C=C/c1cn(Cc2ccccc2Cl)nc1-c1ccccc1	inconclusive [activator, single point]	–
O=C(O)c1ccccc1-n1c2ccccc2c2ccccc21	active: 20 µM	–
CC1=C(C(=O)N2CCOCC2)CC(CC(=O)NC2CCCCC2)C(=O)N1Cc1ccc(C(C)(C)C)cc1 (stereo not drawn)	inconclusive [activator, single point]	–
COc1ccc2[nH]cc(/C=C/C(=O)c3ccccc3)c2c1	inconclusive [activator, partial curve]	–
